The campaign covered roughly 420,000 compounds. About 64,000 (15%) were called active. Inconclusive means that the source gave no clear call. Such entries were picked first, then a sample of the others. The call rests on the fitted dose curve; in most records, active means well fitted inhibition curve with a large enough effect; inconclusive means small, poorly fitted or top-dose-only effect; inactive means flat fitted curve, though single readings scatter. Potencies of inconclusive entries are left out as doubtful fits.
Experiment: qHTS for Inhibitors of human tyrosyl-DNA phosphodiesterase 1 (TDP1): qHTS in cells in absence of CPT; further: nearly all actives have a fitted effect of over 55% in size
Details: DT40 Tdp1-/- hTDP1 cells, no CPT, ATP luminescence, 48 h; series mostly up to 46.2 µM
Summary of the method: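 Camptothecin absent (DMSO only). Human TDP1-complemented DT40 knockout cells, 400 cells/well, 37 °C for minimum 48 hr; ATP measured via CellTiter-Glo, 30 min dark incubation, luminescence.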
Potency means the concentration at half of the fitted maximal effect; tags describe the fitted curve by direction and shape.

SMILES	Potency
COC(=O)COc1ccc(/C=N/NS(=O)(=O)c2ccccc2)cc1	inactive
O=C(O)CC1(C(=O)O)CC2C=CC1C2 (configuration not stated)	inactive
COc1ccc(NC(=O)c2ccccc2NC(=O)c2ccccc2)cc1	inconclusive [inhibitor, single point]
COC(=O)[C@@]12C[C@@H](CC(=O)NCCCN3CCCC3=O)C(=O)N(CCc3ccc(OC)c(OC)c3)C1=CCC(C)(C)C2	inactive
CC(C)CC(=O)Nc1nnc(SCC(=O)Nc2ccc3c(c2)OCO3)s1	inconclusive [inhibitor, single point]
COc1ccccc1N1CCN(C(=O)c2cc3c(=O)oc4ccccc4c3s2)CC1	inactive
CC1CCN(CCOCCOc2ccc(Cl)cc2Br)CC1	active: 20.6 µM
COc1ccc(N/C=C(\C#N)c2nc3ccccc3n2C)c(OC)c1	active: 23.1 µM
CCC(C)NCC(=O)Nc1ccc(-c2nc3cc(NC(=O)CNC(C)CC)ccc3o2)cc1 (configuration not stated)	active: 7.31 µM
CC1Oc2ccccc2N(CC(=O)N(Cc2ccccc2)Cc2ccccn2)C1=O (configuration not stated)	inconclusive [inhibitor, partial curve]
COc1cccc(C(=O)OCC(=O)Nc2ccc3c(c2)OCCO3)c1	inconclusive [inhibitor, single point]
Cc1ccccc1CSc1nc2ccsc2c(=O)n1CCC(C)C	inconclusive [inhibitor, single point]
Cc1ccc(C)c(N(C(=O)Cc2cccs2)C(C(=O)NC2CCCC2)c2ccc(C)o2)c1 (configuration not stated)	active: 13 µM
NC(N)=Nc1nc(-c2ccccc2)c2ccccc2n1	active: 14.6 µM
CN(Cc1ccc(F)cc1)C(=O)CN1C(=O)c2ccccc2S1(=O)=O	inactive
Cc1c(=O)n(OCc2cccc(F)c2)c2ccccc2[n+]1[O-]	inconclusive [inhibitor, partial curve]
COc1ccc(-c2n[nH]c(=S)n2-c2ccc(C)cc2)cc1	inconclusive [inhibitor, single point]
COc1ccc(C(C)(NC(C)=O)c2nc(-c3cccc(C#N)c3)cs2)cc1 (configuration not stated)	active: 16.4 µM
CCN(CC)S(=O)(=O)c1ccc2[nH]c(=O)cc(C(=O)Nc3ccccc3N3CCCC3)c2c1	inactive
CC[n+]1c(C)sc2c(C)cc(C)cc21	inconclusive [inhibitor, single point]
COc1cccc(NC(=O)CN(C)C(=O)c2cc3c(s2)CCC3)c1	inactive
COc1ccccc1NC(=O)c1oc2ccccc2c1NC(=O)C1CCCCC1	inconclusive [inhibitor, single point]

From PubChem BioAssay AID686978 (National Center for Advancing Translational Sciences (NCATS), 2013)
